# In the supplement of paper PMC8728848:
# The list shows a part of the results.
# B1: GNA (Galanthus nivalis), P30617 (protein)
# chain: MAKASLLILAAIFLGVITPSCLSDNILYSGETLSTGEFLNYGSFVFIMQEDCNLVLYDVDKPIWATNTGGLSRSCFLSMQTDGNLVVYNPSNKPIWASNTGGQNGNYVCILQKDRNVVIYGTDRWATGTHTGLVGIPASPPSEKYPTAGKIKLVTAK
# Columns and labels:
# Assay in all cases: glycan array binding signal (z-score within array); higher = stronger binding
# Settings in all cases: glycan notation: IUPAC condensed, linker removed
# [1] = molecular target: Man(a1-3)[Man(a1-6)]Man(a1-6)[Man(a1-2)Man(a1-3)]Man(b1-4)GlcNAc(b1-4)GlcNAc
# Summary of the method: (§1)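 Glycan array data came from 3228 arrays in the Consortium for Functional Glycomics database, and only arrays with an available protein sequence were kept. Glycan names were put into IUPAC-condensed notation, and columns mapping to the same glycan were averaged. The binding signal is a within-array Z-score, averaged across arrays of one protein sequence run at different concentrations or buffers and across linkers. A negative Z-score can be read as non-binding.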
# [2] = molecular target: Man(a1-3)[Man(a1-6)]Man(a1-6)[Man(a1-3)]Man
# Summary of the method: as §1
# [3] = molecular target: Man(a1-3)[Man(a1-6)]Man(a1-6)[Man(a1-3)]Man(b1-4)GlcNAc(b1-4)GlcNAc
# Summary of the method: as §1
# [4] = molecular target: Man(a1-3)[Man(a1-6)]Man(b1-4)GlcNAc(b1-4)GlcNAc
# Summary of the method: as §1
# [5] = molecular target: Man(a1-3)[Man(a1-6)]Man(b1-4)GlcNAc(b1-4)[Fuc(a1-6)]GlcNAc
# Summary of the method: as §1
# Man(a1-6)Man = molecular target: Man(a1-6)Man
# Summary of the method: as §1
# Man(b1-4)GlcNAc = molecular target: Man(b1-4)GlcNAc
# Summary of the method: as §1
# MurNAc(b1-4)GlcNAc = molecular target: MurNAc(b1-4)GlcNAc
# Summary of the method: as §1
# Neu5Ac(a2-3)Gal = molecular target: Neu5Ac(a2-3)Gal
# Summary of the method: as §1
# [6] = molecular target: Neu5Ac(a2-3)Gal(b1-3)GalNAc
# Summary of the method: as §1
# [7] = molecular target: Neu5Ac(a2-3)Gal(b1-3)GalNAc(b1-3)Gal(a1-4)Gal(b1-4)Glc
# Summary of the method: as §1
# [8] = molecular target: Neu5Ac(a2-3)Gal(b1-3)GalNAc(b1-3)Gal(b1-4)GlcNAc
# Summary of the method: as §1
# [9] = molecular target: Neu5Ac(a2-3)Gal(b1-3)GalNAc(b1-4)Gal(b1-4)Glc
# Summary of the method: as §1
# [10] = molecular target: Neu5Ac(a2-3)Gal(b1-3)GalNAc(b1-4)[Neu5Ac(a2-3)]Gal(b1-4)Glc
# Summary of the method: as §1
# [11] = molecular target: Neu5Ac(a2-3)Gal(b1-3)GalNAc(b1-4)[Neu5Ac(a2-8)Neu5Ac(a2-3)]Gal(b1-4)Glc
# Summary of the method: as §1
# [12] = molecular target: Neu5Ac(a2-3)Gal(b1-3)GalNAc6S
# Summary of the method: as §1
# [13] = molecular target: Neu5Ac(a2-3)Gal(b1-3)GlcNAc
# Summary of the method: as §1
# [14] = molecular target: Neu5Ac(a2-3)Gal(b1-3)GlcNAc(b1-2)Man
# Summary of the method: as §1
# [15] = molecular target: Neu5Ac(a2-3)Gal(b1-3)GlcNAc(b1-2)Man(a1-3)[GlcNAc(b1-4)][Neu5Ac(a2-3)Gal(b1-3)GlcNAc(b1-2)Man(a1-6)]Man(b1-4)GlcNAc(b1-4)GlcNAc
# Summary of the method: as §1
# [16] = molecular target: Neu5Ac(a2-3)Gal(b1-3)GlcNAc(b1-2)Man(a1-3)[Neu5Ac(a2-3)Gal(b1-3)GlcNAc(b1-2)Man(a1-6)]Man(b1-4)GlcNAc(b1-4)GlcNAc
# Summary of the method: as §1
# [17] = molecular target: Neu5Ac(a2-3)Gal(b1-3)GlcNAc(b1-2)[Neu5Ac(a2-3)Gal(b1-3)GlcNAc(b1-4)]Man(a1-6)[Neu5Ac(a2-3)Gal(b1-3)GlcNAc(b1-2)Man(a1-3)]Man(b1-4)GlcNAc(b1-4)GlcNAc
# Summary of the method: as §1
# [18] = molecular target: Neu5Ac(a2-3)Gal(b1-3)GlcNAc(b1-3)Gal(b1-3)GlcNAc
# Summary of the method: as §1
# [19] = molecular target: Neu5Ac(a2-3)Gal(b1-3)GlcNAc(b1-3)Gal(b1-4)GlcNAc
# Summary of the method: as §1
# [20] = molecular target: Neu5Ac(a2-3)Gal(b1-3)GlcNAc(b1-3)GalNAc
# Summary of the method: as §1
# [21] = molecular target: Neu5Ac(a2-3)Gal(b1-3)GlcNAc(b1-4)Gal(b1-4)Glc
# Summary of the method: as §1
# [22] = molecular target: Neu5Ac(a2-3)Gal(b1-3)GlcNAc(b1-6)GalNAc
# Summary of the method: as §1
# [23] = molecular target: Neu5Ac(a2-3)Gal(b1-3)GlcNAc6S
# Summary of the method: as §1
# [24] = molecular target: Neu5Ac(a2-3)Gal(b1-3)[Fuc(a1-4)]GlcNAc
# Summary of the method: as §1
# [25] = molecular target: Neu5Ac(a2-3)Gal(b1-3)[Fuc(a1-4)]GlcNAc(b1-3)Gal(b1-3)[Fuc(a1-4)]GlcNAc
# Summary of the method: as §1
# [26] = molecular target: Neu5Ac(a2-3)Gal(b1-3)[Fuc(a1-4)]GlcNAc(b1-3)Gal(b1-4)[Fuc(a1-3)]GlcNAc
# Summary of the method: as §1
# [27] = molecular target: Neu5Ac(a2-3)Gal(b1-3)[GlcNAc(b1-6)]GalNAc
# Summary of the method: as §1
# [28] = molecular target: Neu5Ac(a2-3)Gal(b1-3)[Neu5Ac(a2-3)Gal(b1-4)]GlcNAc
# Summary of the method: as §1
# [29] = molecular target: Neu5Ac(a2-3)Gal(b1-3)[Neu5Ac(a2-6)]GalNAc
# Summary of the method: as §1
# [30] = molecular target: Neu5Ac(a2-3)Gal(b1-3)[Neu5Ac(a2-6)]GlcNAc(b1-3)[Fuc(a1-3)[Gal(b1-4)]GlcNAc(b1-6)]Gal(b1-4)Glc
# Summary of the method: as §1
# [31] = molecular target: Neu5Ac(a2-3)Gal(b1-3)]Neu5Ac(a2-3)Gal(b1-4)]GlcNAc
# Summary of the method: as §1
# Neu5Ac(a2-3)Gal(b1-4)Glc = molecular target: Neu5Ac(a2-3)Gal(b1-4)Glc
# Summary of the method: as §1
# [32] = molecular target: Neu5Ac(a2-3)Gal(b1-4)GlcNAc
# Summary of the method: as §1
# [33] = molecular target: Neu5Ac(a2-3)Gal(b1-4)GlcNAc(b1-2)Man
# Summary of the method: as §1
# [34] = molecular target: Neu5Ac(a2-3)Gal(b1-4)GlcNAc(b1-2)Man(a1-3)[GlcNAc(b1-2)Man(b1-4)GlcNAc(b1-2)Man(a1-6)]Man(b1-4)GlcNAc(b1-4)GlcNAc
# Summary of the method: as §1
# [35] = molecular target: Neu5Ac(a2-3)Gal(b1-4)GlcNAc(b1-2)Man(a1-3)[GlcNAc(b1-4)][Neu5Ac(a2-3)Gal(b1-4)GlcNAc(b1-2)Man(a1-6)]Man(b1-4)GlcNAc(b1-4)GlcNAc
# Summary of the method: as §1
# [36] = molecular target: Neu5Ac(a2-3)Gal(b1-4)GlcNAc(b1-2)Man(a1-3)[Neu5Ac(a2-3)Gal(b1-4)GlcNAc(b1-2)Man(a1-6)]Man(b1-4)GlcNAc(b1-4)GlcNAc
# Summary of the method: as §1
# [37] = molecular target: Neu5Ac(a2-3)Gal(b1-4)GlcNAc(b1-2)Man(a1-3)[Neu5Ac(a2-3)Gal(b1-4)GlcNAc(b1-2)Man(a1-6)]Man(b1-4)GlcNAc(b1-4)[Fuc(a1-6)]GlcNAc
# Summary of the method: as §1
# [38] = molecular target: Neu5Ac(a2-3)Gal(b1-4)GlcNAc(b1-2)Man(a1-3)[Neu5Ac(a2-6)Gal(b1-4)GlcNAc(b1-2)Man(a1-6)]Man(b1-4)GlcNAc(b1-4)GlcNAc
# Summary of the method: as §1
# [39] = molecular target: Neu5Ac(a2-3)Gal(b1-4)GlcNAc(b1-2)[Neu5Ac(a2-3)Gal(b1-4)GlcNAc(b1-4)]Man(a1-3)[GlcNAc(b1-4)][Neu5Ac(a2-3)Gal(b1-4)GlcNAc(b1-2)[Neu5Ac(a2-3)Gal(b1-4)GlcNAc(b1-6)]Man(a1-6)]Man(b1-4)GlcNAc(b1-4)GlcNAc
# Summary of the method: as §1
# [40] = molecular target: Neu5Ac(a2-3)Gal(b1-4)GlcNAc(b1-2)[Neu5Ac(a2-3)Gal(b1-4)GlcNAc(b1-4)]Man(a1-3)[GlcNAc(b1-4)][Neu5Ac(a2-3)Gal(b1-4)GlcNAc(b1-4)Man(a1-6)]Man(b1-4)GlcNAc(b1-4)GlcNAc
# Summary of the method: as §1
binder,measurement,setting,value
B1,glycan array binding signal (z-score),[1],5.86
same,glycan array binding signal (z-score),[2],3.04
same,glycan array binding signal (z-score),[3],5.35
same,glycan array binding signal (z-score),[4],9.48
same,glycan array binding signal (z-score),[5],6.97
same,glycan array binding signal (z-score),Man(a1-6)Man,-0.24
same,glycan array binding signal (z-score),Man(b1-4)GlcNAc,-0.102
same,glycan array binding signal (z-score),MurNAc(b1-4)GlcNAc,-0.174
same,glycan array binding signal (z-score),Neu5Ac(a2-3)Gal,-0.093
same,glycan array binding signal (z-score),[6],-0.215
same,glycan array binding signal (z-score),[7],-0.077
same,glycan array binding signal (z-score),[8],-0.195
same,glycan array binding signal (z-score),[9],-0.133
same,glycan array binding signal (z-score),[10],-0.14
same,glycan array binding signal (z-score),[11],-0.155
same,glycan array binding signal (z-score),[12],-0.1
same,glycan array binding signal (z-score),[13],-0.17
same,glycan array binding signal (z-score),[14],-0.137
same,glycan array binding signal (z-score),[15],-0.114
same,glycan array binding signal (z-score),[16],-0.094
same,glycan array binding signal (z-score),[17],-0.033
same,glycan array binding signal (z-score),[18],-0.219
same,glycan array binding signal (z-score),[19],-0.158
same,glycan array binding signal (z-score),[20],-0.162
same,glycan array binding signal (z-score),[21],-0.145
same,glycan array binding signal (z-score),[22],-0.168
same,glycan array binding signal (z-score),[23],-0.198
same,glycan array binding signal (z-score),[24],-0.176
same,glycan array binding signal (z-score),[25],-0.174
same,glycan array binding signal (z-score),[26],-0.321
same,glycan array binding signal (z-score),[27],-0.166
same,glycan array binding signal (z-score),[28],-0.205
same,glycan array binding signal (z-score),[29],-0.121
same,glycan array binding signal (z-score),[30],-0.164
same,glycan array binding signal (z-score),[31],-0.157
same,glycan array binding signal (z-score),Neu5Ac(a2-3)Gal(b1-4)Glc,-0.111
same,glycan array binding signal (z-score),[32],-0.179
same,glycan array binding signal (z-score),[33],-0.147
same,glycan array binding signal (z-score),[34],-0.242
same,glycan array binding signal (z-score),[35],-0.18
same,glycan array binding signal (z-score),[36],-0.163
same,glycan array binding signal (z-score),[37],-0.163
same,glycan array binding signal (z-score),[38],-0.235
same,glycan array binding signal (z-score),[39],-0.185
same,glycan array binding signal (z-score),[40],-0.178
